Experimental findings from the supplement of paper PMC10670038 are described below.

Where a name gives a salt, the structure may show the parent alone. ± gives the standard deviation of the averaged measurements. In all, about 2,000 compounds were measured (“relative cell viability vs DMSO, compound + 0.2 uM CuET”: median about 1, lowest 2% from about 0.25 on). Some of the results follow.

The test system of the experiment is TE10. The experiment in a line: relative cell viability vs DMSO, compound + 0.2 uM CuET (fraction); TE10 is an esophageal squamous carcinoma line; higher = less cytotoxic. The following applies: 2 µM; co-treatment: CuET (bis(diethyldithiocarbamate)copper) 0.2 uM; 48 h. Here is the method: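 TE10 ESCC cells (1,000/well, 384-well plates) were treated with Selleck bioactive library compounds at 2 uM combined with 0.2 uM CuET (copper diethyldithiocarbamate) for 48 h. Viability was read by CellTiter-Glo and expressed relative to DMSO wells. Two technical replicates (A, B).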
On to `COc1ccc(CCC(=O)c2c(O)cc(O[C@@H]3O[C@H](CO)[C@@H](O)[C@H](O)[C@H]3O[C@@H]3O[C@@H](C)[C@H](O)[C@@H](O)[C@H]3O)cc2O)cc1O` [Neohesperidin dihydrochalcone (Nhdc)], for which the relative cell viability was 1.19 ± 0.047.

With `CCCCOc1ccc(C(=O)CCN2CCCCC2)cc1` [Dyclonine HCl], the relative cell viability worked out at 0.521 ± 0.065.

As for `COc1ccc(CCC(=O)Nc2nc3ccc(Cl)cc3s2)cc1OC`, the relative cell viability came out at 1.04 ± 0.13.

Consider `C=C1C(=O)O[C@H]2[C@H]1CC/C(C)=C/CC[C@@]1(C)O[C@@H]21` [(-)-Parthenolide], for which the relative cell viability was found to be 0.447 ± 0.029.

On to `COC(=O)N[C@H](C(=O)N1CC2(CC2)C[C@H]1c1nc(-c2ccc3c(c2)C(F)(F)c2cc(-c4ccc5[nH]c([C@@H]6[C@H]7CC[C@H](C7)N6C(=O)[C@@H](NC(=O)OC)C(C)C)nc5c4)ccc2-3)c[nH]1)C(C)C` [Ledipasvir (GS5885)], for which the relative cell viability came out at 1.05 ± 0.048.

With `COc1ccc(CNc2nc(N3CCC[C@H]3CO)ncc2C(=O)NCc2ncccn2)cc1Cl` [Avanafil], the relative cell viability was found to be 0.995 ± 0.023.

Regarding `CC(=O)OCC(=O)[C@@]1(O)CC[C@H]2[C@@H]3CCC4=CC(=O)C=C[C@]4(C)[C@H]3[C@@H](O)C[C@@]21C` [Prednisolone Acetate], the relative cell viability was 1.14 ± 0.074.

In the case of `CN1CCN(C(=O)c2cc3cc(Cl)ccc3[nH]2)CC1`, the relative cell viability came to 1.08 ± 0.11.

On to `N#CC1(c2ccc(NC(=O)c3cccnc3NCc3ccncc3)cc2)CCCC1` [Apatinib], for which the relative cell viability worked out at 1.02 ± 0.061.

Regarding `OC[C@@H](O)CN1CCN(c2ccccc2)CC1` [Levodropropizine], the relative cell viability came to 1.14 ± 0.029.

Consider `CC(ONC(=O)c1cc(C(F)(F)F)cc(C(F)(F)F)c1)C(=O)Nc1ccc(Cl)cc1` (centres undefined), for which the relative cell viability was determined as 1.17 ± 0.041.

In the case of `CC[C@H](c1ccc(O)cc1)[C@@H](CC)c1ccc(O)cc1` [Hexestrol], the relative cell viability was determined as 1.11 ± 0.14.

As to `Cc1c(Nc2ncccc2C(=O)O)cccc1C(F)(F)F` [Flunixin Meglumin], the relative cell viability is 0.952 ± 0.076.

With `CC(C)=CCCC(C)(OC1OC(COC2OCC(O)C(O)C2O)C(O)C(O)C1O)C1CCC2(C)C1C(O)CC1C3(C)CCC(OC4OC(CO)C(O)C(O)C4O)C(C)(C)C3CCC12C` (centres undefined) [Gynostemma Extract], the relative cell viability came out at 1.04 ± 0.076.

In the case of `NCCc1ccc(O)c(O)c1` [Dopamine HCl], the relative cell viability was 0.939 ± 0.22.

As for `C[C@H](CS)C(=O)N1CCC[C@H]1C(=O)O` [Captopril], the relative cell viability turned out to be 1.16 ± 0.1.

For the compound `CN(Cc1cc(Br)cc(Br)c1N)C1CCCCC1` [Bromhexine HCl], the relative cell viability amounted to 1.042 ± 0.0029.

As to `Nc1nc(N)c2nc(-c3cccc(O)c3)c(-c3cccc(O)c3)nc2n1`, the relative cell viability is 0.952 ± 0.014.

`Cn1cnc2c(F)c(Nc3ccc(Br)cc3Cl)c(C(=O)NOCCO)cc21` [Selumetinib (AZD6244)]: the relative cell viability is 0.555 ± 0.21.

For `FC(F)(F)Oc1ccc2nc(-c3ccc(OCCOCCOc4ccc(-c5nc6ccc(OC(F)(F)F)cc6[nH]5)nc4)cn3)[nH]c2c1`, the relative cell viability worked out at 0.604 ± 0.076.

On to `C[C@@H]1C/C=C/C=C/C=C/C=C/[C@H](O[C@@H]2O[C@H](C)[C@@H](O)[C@H](N)[C@@H]2O)C[C@@H]2O[C@](O)(C[C@@H](O)C[C@H]3O[C@@H]3/C=C/C(=O)O1)C[C@H](O)[C@H]2C(=O)O` [Natamycin], for which the relative cell viability worked out at 1.16 ± 0.1.

Regarding `CC(C(O)c1ccc(O)cc1)N1CCC(Cc2ccccc2)CC1` (centres undefined) [Ifenprodil Tartrate], the relative cell viability worked out at 0.91 ± 0.069.

For the compound `CCn1c(=O)c2c(nc(/C=C/c3ccc(OC)c(OC)c3)n2C)n(CC)c1=O` [Istradefylline], the relative cell viability came to 0.9155 ± 0.0057.

As to `CC(C)(Oc1ccc(Cl)cc1)C(=O)OCCOC(=O)c1cccnc1` [Etofibrate], the relative cell viability stood at 1.15 ± 0.087.

As to `Cc1cc(C)nc(NS(=O)(=O)c2ccc(N)cc2)n1` [Sulfamethazine], the relative cell viability was determined as 1.09 ± 0.047.

For the compound `CC1(C)O[C@@H]2C[C@H]3[C@@H]4C[C@H](F)C5=CC(=O)C=C[C@]5(C)[C@@]4(F)[C@@H](O)C[C@]3(C)[C@]2(C(=O)CO)O1` [Fluocinolone Acetonide], the relative cell viability was determined as 1.1 ± 0.032.

For the compound `CC(C)[C@H](N)C(=O)OCCOCn1cnc2c(=O)nc(N)[nH]c21` [Valaciclovir HCl], the relative cell viability stood at 0.958 ± 0.033.

In the case of `CN1CCN2c3ncccc3Cc3ccccc3C2C1` (centres undefined) [Mirtazapine], the relative cell viability turned out to be 0.799 ± 0.028.

As to `CC(C)N(CC[C@H](c1ccccc1)c1cc(CO)ccc1O)C(C)C`, the relative cell viability turned out to be 1.03 ± 0.15.

In the case of `CC[C@H](NC(=O)[C@H](C)NC)C(=O)N1C[C@@H](O)C[C@H]1Cc1c(-c2[nH]c3cc(F)ccc3c2C[C@@H]2C[C@H](O)CN2C(=O)[C@H](CC)NC(=O)[C@H](C)NC)[nH]c2cc(F)ccc12` [Birinapant], the relative cell viability is 0.473 ± 0.052.

Regarding `CCCCCCNC(=O)n1cc(F)c(=O)[nH]c1=O` [Carmofur], the relative cell viability was 1.31 ± 0.1.

Turning to `CCOC(=O)C1=C(N)Oc2ccc(Cl)cc2C1C(C#N)C(=O)OCC` (centres undefined), the relative cell viability is 0.663 ± 0.023.

Regarding `Cc1nc(C(=O)NCC(=O)O)c(O)c2ccc(Oc3ccccc3)cc12`, the relative cell viability worked out at 0.566 ± 0.39.

For `COC(=O)C1=CO[C@@H](O)[C@@H]2C(CO)=CC[C@H]12` [Genipin], the relative cell viability is 1.06 ± 0.033.

For `COc1cccc2c1C(=O)c1c(O)c3c(c(O)c1C2=O)C[C@@](O)(C(=O)CO)C[C@@H]3O[C@H]1C[C@H](N)[C@H](O[C@@H]2CCCCO2)[C@H](C)O1` [Pirarubicin], the relative cell viability was found to be 0.87688 ± 0.00065.

As for `CC#C[C@]1(O)CC[C@H]2[C@@H]3CCC4=CC(=O)CCC4=C3[C@@H](c3ccc(N(C)C)cc3)C[C@@]21C` [Mifepristone], the relative cell viability came to 0.939 ± 0.054.

On to `CC[C@@H]1C(=O)N(C)c2cnc(Nc3ccc(C(=O)N[C@H]4CC[C@H](N5CCN(CC6CC6)CC5)CC4)cc3OC)nc2N1C(C)C` [Volasertib (BI 6727)], for which the relative cell viability turned out to be 0.655 ± 0.056.

Turning to `CCc1cccc(CC)c1NC(=O)N1Cc2[nH]nc(NC(=O)c3ccc(N4CCN(C)CC4)cc3)c2C1`, the relative cell viability worked out at 0.985 ± 0.23.

On to `Nc1nc(=O)n([C@@H]2CS[C@H](CO)O2)cc1F` [Emtricitabine], for which the relative cell viability stood at 1.07 ± 0.073.

On to `COc1ccc(Cl)cc1C(=O)NCCc1ccc(S(=O)(=O)NC(=O)NC2CCCCC2)cc1` [Glyburide], for which the relative cell viability is 1.04 ± 0.053.

In the case of `CC#CCn1c(N2CCC[C@@H](N)C2)nc2c1c(=O)n(Cc1nc(C)c3ccccc3n1)c(=O)n2C` [Linagliptin], the relative cell viability came to 1.33 ± 0.14.

As to `CCN(CC)CCOCCOC(=O)C1(c2ccccc2)CCCC1` [Pentoxyverine Citrate], the relative cell viability was 1.25 ± 0.042.

On to `COc1cc(NC(=O)c2ccccn2)ccc1Cl`, for which the relative cell viability was determined as 1.16 ± 0.24.

On to `Cc1cc(C(C)(C)C)cc(C)c1CC1=NCCN1` [Xylometazoline HCl], for which the relative cell viability was determined as 1.16 ± 0.14.

With `CCN(CC)C(=O)C1(c2ccccc2)CC1CN` (centres undefined) [Milnacipran HCl], the relative cell viability was found to be 1.06 ± 0.062.

For `N#C/C(=C(/N)Sc1ccc(N)cc1)c1ccccc1C(F)(F)F`, the relative cell viability was 1.14 ± 0.089.

As for `COc1cc2nc(N3CCN(C(=O)C4COc5ccccc5O4)CC3)nc(N)c2cc1OC` (centres undefined) [Doxazosin Mesylate], the relative cell viability was found to be 1.1 ± 0.022.

As for `O=c1c(O)c(-c2ccc(O)cc2)oc2cc(O)cc(O)c12` [Kaempferol], the relative cell viability was found to be 1.12 ± 0.089.

Take `NC[C@@](O)(c1ccc(Cl)cc1)c1ccc(-c2cn[nH]c2)cc1`: the relative cell viability stood at 1.04 ± 0.051.

Take `CNC(=O)c1ccc(N2C(=S)N(c3ccc(C#N)c(C(F)(F)F)c3)C(=O)C2(C)C)cc1F` [Enzalutamide (MDV3100)]: the relative cell viability amounted to 0.774 ± 0.15.

For the compound `COc1cc(OC)c(NC(=O)Nc2cc(C)on2)cc1Cl`, the relative cell viability is 1.1 ± 0.05.

`CCCc1ccc(OCC(=O)N(Cc2nc(-c3cccnc3)no2)C(C)C)cc1`: the relative cell viability came out at 1.18 ± 0.13.

Turning to `CC(C)(C)c1cc(NC(=O)Nc2ccc(-c3cn4c(n3)sc3cc(OCCN5CCOCC5)ccc34)cc2)no1` [Quizartinib (AC220)], the relative cell viability is 0.362 ± 0.054.

On to `CC1(C)Cc2c(-c3ccccc3)c(-c3ccc(Cl)cc3)c(CC(=O)O)n2C1` [Licofelone], for which the relative cell viability was found to be 1.17 ± 0.023.

For `CNC(=O)c1c(F)cccc1Nc1nc(Nc2cc3c(cc2OC)CCN3C(=O)CN(C)C)nc2[nH]ccc12`, the relative cell viability turned out to be 1.06 ± 0.1.

As to `O=C(/C=C/c1cccc(S(=O)(=O)Nc2ccccc2)c1)NO` [Belinostat (PXD101)], the relative cell viability is 0.195 ± 0.017.

Turning to `CN[C@H]1CC[C@@H](c2ccc(Cl)c(Cl)c2)c2ccccc21` [Sertraline HCl], the relative cell viability came to 0.95055 ± 0.00074.

Take `CC[C@H]1OC(=O)[C@H](C)[C@@H](O[C@H]2C[C@@](C)(OC)[C@@H](O)[C@H](C)O2)[C@H](C)[C@@H](O[C@@H]2O[C@H](C)C[C@H](N(C)C)[C@H]2O)[C@](C)(O)C[C@@H](C)CN(C)[C@H](C)[C@@H](O)[C@]1(C)O` [Azithromycin]: the relative cell viability turned out to be 0.675 ± 0.035.

Turning to `CC[C@H]1OC(=O)[C@H](C)[C@@H](O[C@H]2C[C@@](C)(OC)[C@@H](O)[C@H](C)O2)[C@H](C)[C@@H](O[C@@H]2O[C@H](C)C[C@H](N(C)C)[C@H]2O)[C@](C)(O)C[C@@H](C)CN(C)[C@H](C)[C@@H](O)[C@]1(C)O` [Azithromycin Dihydrate], the relative cell viability was found to be 1.12 ± 0.015.

For `CCn1c(N)c(C(=O)NC)c(=O)c2ccc(C#CC(C)(O)COC)nc21` (centres undefined), the relative cell viability stood at 1.35 ± 0.3.

Regarding `OCCn1cc(-c2ccc3c(c2)CC/C3=N\O)c(-c2ccncc2)n1`, the relative cell viability is 1.19 ± 0.045.

For the compound `CN1CCc2nc(C(=O)N[C@@H]3C[C@@H](C(=O)N(C)C)CC[C@@H]3NC(=O)C(=O)Nc3ccc(Cl)cn3)sc2C1` [Edoxaban], the relative cell viability was determined as 1.22 ± 0.08.

With `O=C1C(Cl)=C(N2CCOCC2)C(=O)N1c1ccc(Cl)c(Cl)c1`, the relative cell viability turned out to be 1.17 ± 0.026.

With `CC(C)[N+]1(C)[C@@H]2CC[C@H]1C[C@@H](OC(=O)C(CO)c1ccccc1)C2` (some centres undefined) [Ipratropium Bromide], the relative cell viability amounted to 1.01 ± 0.077.

For the compound `Cc1ccc(-c2cc(C(F)(F)F)nn2-c2ccc(S(N)(=O)=O)cc2)cc1` [Celecoxib], the relative cell viability was 1.19 ± 0.065.

Take `Nc1ccc(S(=O)(=O)Nc2nccs2)cc1` [Sulfathiazole]: the relative cell viability was determined as 1.1 ± 0.12.

Regarding `O=C(O)c1cccc(-c2noc(-c3ccccc3F)n2)c1` [Ataluren (PTC124)], the relative cell viability came to 0.711 ± 0.053.

`CCc1cc2c(cc1CC)CC(NC[C@H](O)c1ccc(O)c3[nH]c(=O)ccc13)C2` [Indacaterol Maleate]: the relative cell viability was found to be 1.19 ± 0.18.

`C=C[C@]1(C)C[C@@H](OC(=O)CSC(C)(C)CNC(=O)[C@H](N)C(C)C)[C@]2(C)[C@H](C)CC[C@]3(CCC(=O)[C@H]32)[C@@H](C)[C@@H]1O` [Valnemulin HCl]: the relative cell viability amounted to 1.3 ± 0.07.
